86 compounds from PubChem BioAssay AID463173 (ICCB-Longwood Screening Facility, Harvard Medical School, 2010) can be followed below.

Each structure is given as a SMILES string. The campaign covered roughly 52,000 compounds. About 1,700 (3.3%) were called active. Rule as the data show it: active = survival mostly below about 52% (no sharp cut-off); inactive = mostly above about 56%. The list shows a part of the results.

The assay deals with Wild type. The assay can be described thus: growth inhibition of S. aureus wild type versus tarO mutant, primary screen, teichoic acid synthesis inhibitors, RN4220, OD600 (AID 463173). The following applies: S. aureus RN4220 wild type/DeltatarO growth, OD600, 18 h, stronger effect = lower value, screened at 18.75 µg/mL (by protocol).
Regarding `Cc1cccc(N2CCN(C(=O)Cn3ncc4c5ccccc5n(C)c4c3=O)CC2C)c1` (stereo unspecified), the survival was inactive: 82%.

On to `Cc1ccccc1-n1nc(CO)c(C(=O)NCC(c2ccccc2)c2ccccc2)n1`, for which the survival is inactive: 84%.

Consider `COc1ccc(CCNC(=O)CCCn2c(=O)c3ccccc3n(Cc3ccccc3C#N)c2=O)cc1OC`, for which the survival was inactive: 81%.

As for `CC(=O)C1=C(c2ccc(Cl)c(Cl)c2)N(C(C)=O)n2c(nnc2-c2ccccc2)S1`, the survival is inactive: 83%.

Take `O=C(COCc1cc(-c2ccc(F)cc2)on1)Nc1cc(Cl)ccc1O`: the survival is inactive: 89%.

For `Nc1nonc1C(=O)NCCNCc1ccccc1F`, the survival was inactive: 72%.

`COc1cccc2cc(-c3nc(Nc4cccc(C)c4C)sc3C)c(=O)oc12`: the survival is inactive: 65%.

As for `COc1cccc(C2C=C(c3ccccc3)Nc3c(C(=O)Nc4ccccc4)cnn32)c1OC` (stereo unspecified), the survival is inactive: 64%.

On to `COc1cc(C(CC(=O)Nc2cccc(C(C)=O)c2)N2Cc3ccccc3C2=O)cc(OC)c1OC` (stereo unspecified), for which the survival was inactive: 93%.

Take `CC(=O)Nc1nonc1-c1nnc(SCC(=O)Nc2cc(Cl)ccc2C)n1C`: the survival is inactive: 121%.

As for `CCOC(=O)c1c(NC(=O)/C=C/c2ccc(C)cc2)sc(C(C)=O)c1C`, the survival was inactive: 74%.

Take `CCOC(=O)c1cc(S(=O)(=O)NCc2cccc(Cl)c2)[nH]n1`: the survival was inactive: 85%.

`Cn1c(=O)c2c(nc(NCCc3ccccc3)n2Cc2ccc(Cl)cc2)n(C)c1=O`: the survival was inactive: 74%.

As to `Cc1cccc(C(=O)Nc2sc3c(c2C(=O)NC(C)C)CCCC3)c1`, the survival is inactive: 69%.

On to `CCOC(=O)c1cnc2cc(F)c(F)cc2c1Nc1ccccc1O`, for which the survival is inactive: 169%.

Consider `CC(C)(C)OC(=O)N1CCC(c2c(C(=O)N3CCCCC3)cnn2-c2cccc(F)c2)CC1`, for which the survival was inactive: 134%.

Consider `Cc1ccc(C)c(NC(=O)CSc2nnc(-c3cc4occc4n3C)n2-c2ccccc2C)c1`, for which the survival was inactive: 71%.

Regarding `Cc1ccc(CNC(=O)CSc2ncc3c(n2)-c2ccc(Cl)cc2N(Cc2ccccc2)S3(=O)=O)cc1`, the survival is inactive: 91%.

Regarding `Cc1ccc(NS(=O)(=O)c2cc3[nH]c(=O)c(=O)[nH]c3cc2C)cc1N(C)C`, the survival is inactive: 81%.

For the compound `CCc1ccccc1NC(=O)[C@@H](c1ccccc1)N1Cc2ccccc2C1=O`, the survival was inactive: 22%.

For `Cc1ccc(NC(=O)CCCn2c(=O)c3cccn3c3cccnc32)cc1C`, the survival was inactive: 89%.

On to `CC(=O)c1ccc(N2CCN(C(=O)CCc3nnc4n(C)c(=O)c5sccc5n34)CC2)cc1`, for which the survival was inactive: 64%.

With `COc1cc(OC)c(NC(=O)c2noc3c2CSc2ccccc2-3)cc1Cl`, the survival was inactive: 91%.

As for `CCCCn1c(SCC(=O)Nc2ccc(OCC)cc2)nc2ccsc2c1=O`, the survival is inactive: 134%.

`CC1(C)CC(=O)c2c(oc3c(Cl)cc(NS(=O)(=O)c4ccc(Br)cc4)cc23)C1`: the survival was inactive: 76%.

For `CC(=O)N1CCc2c(sc3c2c(=O)n(-c2cc(Cl)ccc2C)c(=O)n3Cc2ccccc2F)C1`, the survival was inactive: 123%.

Take `CC(C)CC(=O)Nc1ccccc1OCc1cc(=O)n2ccccc2n1`: the survival is inactive: 67%.

`N#C/C(=C/c1ccc(-c2ccc(Cl)c(C(=O)O)c2)o1)C(=O)NC1CCCC1`: the survival was inactive: 111%.

As for `COC(=O)c1cc(Cl)ccc1NC(=O)CSc1ncc(S(=O)(=O)c2ccc(Br)cc2)c(=O)[nH]1`, the survival was inactive: 59%.

As for `O=C(Nc1ccc(Br)cc1F)N1CCC(CN2CCc3ccccc3C2)CC1`, the survival was inactive: 63%.

For `Cc1ccc(C)n1/N=C1\NC(=O)CS1`, the survival was inactive: 109%.

With `COc1ccc(C(=O)COC(=O)CCCC(=O)Nc2cc(C(F)(F)F)ccc2Cl)cc1`, the survival is inactive: 70%.

Regarding `CCCCOC(=O)c1ccc(NC(=O)c2cc(-c3cccs3)on2)cc1`, the survival is inactive: 97%.

As to `Cc1ccc(Nc2c(-c3ccc(C)s3)nc3ncccn23)cc1`, the survival was inactive: 43%.

As for `CCOC(=O)c1c(NC(=O)/C=C/c2ccc(C)cc2)sc2c1CCCC2`, the survival is inactive: 34%.

For `COc1ccc(OCC(=O)OCc2cc(=O)n3nc(C4CC4)sc3n2)cc1`, the survival was inactive: 55%.

Turning to `Cc1ccc(NC(=O)C(=O)NCC(c2ccc3c(c2)OCO3)N2CCOCC2)cc1C` (stereo unspecified), the survival is inactive: 45%.

Consider `CCC(C)NC(=O)c1ccc2nc(CCc3ccccc3)oc2c1` (stereo unspecified), for which the survival is inactive: 68%.

For the compound `COc1ccccc1CNC(=O)c1ccc(-c2nc(CS(=O)(=O)c3ccc(C)cc3)c(C)o2)cc1`, the survival is inactive: 69%.

For the compound `Cc1ccc(CNC(=O)CCCc2nnc3n(C)c(=O)c4sccc4n23)cc1`, the survival is inactive: 92%.

`O=C(NCCc1ccc(Cl)cc1)c1cc(-c2ccc(Cl)cc2)n[nH]1`: the survival was inactive: 86%.

In the case of `O=C(CSc1nc(-c2ccccc2)nc2c1Cc1ccccc1O2)N1CCCCC1`, the survival was inactive: 62%.

For `CC1=C(C(=O)Nc2ccccc2)C(c2cccc(Cl)c2)n2nc(SCC(=O)c3ccc(C)cc3)nc2N1` (stereo unspecified), the survival was inactive: 64%.

As for `CCOc1ccc(NC(=O)CCCc2nnc3n(C)c(=O)c4sccc4n23)cc1`, the survival is inactive: 102%.

On to `O=C(NCc1ccccc1F)C(=O)NCC(c1ccco1)S(=O)(=O)c1cccs1` (stereo unspecified), for which the survival is inactive: 19%.

In the case of `Cc1cccc(OCC(=O)Nc2ccccc2C(=O)OCc2cc(=O)n3nc(C)sc3n2)c1`, the survival was inactive: 74%.

In the case of `Cc1ccc(Cn2c(=O)n(CCCCC(=O)NCc3ccccc3Cl)c(=O)c3ccccc32)cc1`, the survival is inactive: 114%.

Take `O=c1[nH]c2ccc(NCc3ccc(-c4ccccc4)o3)cc2[nH]1`: the survival is inactive: 88%.

Regarding `CCc1c(C)nc2c(C)cccc2c1SCCC#N`, the survival is inactive: 111%.

`CCOc1ccccc1Nc1sc(C(=O)c2ccccc2)c(N)c1S(=O)(=O)c1ccc(C)cc1`: the survival was inactive: 81%.

In the case of `O=C(Nc1ccc2oc(-c3ccc4ccccc4c3)nc2c1)c1ccc(Cl)c(Cl)c1`, the survival is inactive: 99%.

With `Cc1ccc(CCNC(=O)c2cc3c(-c4ccccc4F)nn(C)c3s2)cc1`, the survival is inactive: 75%.

Turning to `COc1ccc(OC)c(NC(=O)c2cn(CC(C)C)c(=O)c3cc(OC)c(OC)cc23)c1`, the survival was inactive: 70%.

Regarding `COCCCNC(=O)c1ccc2c(c1)nc(C)n2-c1cccc(C)c1`, the survival was inactive: 69%.

As to `CCOc1ccc(-c2oc3ccc(C)cc3c(=O)c2O)cc1`, the survival was inactive: 82%.

With `Fc1ccc(Nc2ncnc3c2nc2n3CCCCC2)c(F)c1`, the survival is active: 14%.

`CCN(c1ccccc1)S(=O)(=O)c1ccc(NC(=O)c2cc(=O)c3ccccc3o2)cc1`: the survival is inactive: 83%.

With `O=C(Nc1ccc(C(=O)OCc2cc(=O)n3nc(C4CC4)sc3n2)cc1)c1cccc(F)c1`, the survival is inactive: 63%.

In the case of `CCOC(=O)c1c(S(=O)(=O)N2CCC(C(=O)Nc3ncccc3C)CC2)c(C)n(C)c1C`, the survival is inactive: 72%.

Turning to `CCOC(=O)c1cc(-c2ccc(OC)cc2)n(CCC(=O)NC2CCCCC2)c1C`, the survival was inactive: 82%.

As for `COc1ccc2c(CNC3CCCCCC3)c(C(=O)O)n(Cc3ccccc3F)c2c1`, the survival is inactive: 89%.

Take `O=C(Nc1ccc(F)cc1)C1CCN(S(=O)(=O)c2ccc3c(c2)CCCN3C(=O)C2CCC2)CC1`: the survival was inactive: 102%.

For the compound `CCC(=O)N1CCc2cc(Br)cc(S(=O)(=O)CCC(=O)N3CCN(c4cc(C)ccc4C)CC3)c21`, the survival is inactive: 59%.

For the compound `CCCc1nnc(NC(=O)c2cc(=O)c3cc(C)c(C)cc3o2)s1`, the survival is inactive: 72%.

Take `CCOC(=O)c1cnc2ccc(C)cc2c1Nc1ccc(N(CC)CC)cc1`: the survival is active: -2%.

For the compound `Cc1c(C(=O)OC2CCCCC2)[nH]c2c1C(=O)CC(c1ccc(C(C)(C)C)cc1)C2` (stereo unspecified), the survival was inactive: 84%.

On to `CCc1ccccc1NC(=O)CN1C(=O)CCSc2ccc(S(=O)(=O)N3CCCC3)cc21`, for which the survival was inactive: 124%.

As to `O=C(OCC1CCCO1)c1ccc2c(c1)N(Cc1ccccc1)C(=O)c1ccccc1S2(=O)=O` (stereo unspecified), the survival was inactive: 72%.

With `CCN(CC)S(=O)(=O)c1ccc2c(c1)nc(CN(C)C(=O)Nc1ccc(C)c(F)c1)n2C`, the survival is inactive: 85%.

For `COC(=O)c1ccc(CSc2nc3c([nH]c4ccccc43)c(=O)n2-c2cccc(Cl)c2)o1`, the survival was inactive: 71%.

As to `CCc1ccccc1NC(=O)C(C)n1c(=O)cc(C)c2c(C)nn(-c3ccccc3)c21` (stereo unspecified), the survival was inactive: 72%.

With `CCOC(=O)C1CCCN(C(=O)Cn2ncc3c4ccccc4n(Cc4ccccc4)c3c2=O)C1` (stereo unspecified), the survival is inactive: 121%.

`COc1ccc(N2CCN(C(=O)COCc3cc(-c4ccc5c(c4)OCO5)on3)CC2)cc1`: the survival was inactive: 81%.

For `COc1ccccc1NC(=O)c1cc2c(C)nn(-c3ccccc3)c2s1`, the survival is active: 1%.

In the case of `Cc1ccc(NC(=O)c2nc(S(C)(=O)=O)ncc2N(Cc2ccco2)Cc2cccs2)cc1C`, the survival is inactive: 77%.

As to `COc1ccc(NC(=O)c2sc3nc(C(F)(F)F)cc(C)c3c2N)cc1OC`, the survival is inactive: 130%.

Consider `O=C(NC1CCN(Cc2ccccc2)CC1)c1ccc(Cn2c(=O)c3ccccc3n(Cc3ccc(F)cc3)c2=O)cc1`, for which the survival is inactive: 90%.

For the compound `Cc1cc(C)cc(Oc2nc3ccccn3c(=O)c2/C=C(\C#N)c2nc3ccccc3s2)c1`, the survival is inactive: 64%.

As for `CCn1nc(-c2ccccc2)c(-c2ccccc2)c(C(=O)Nc2ccc(NC(C)=O)cc2)c1=O`, the survival was inactive: 88%.

Regarding `Cn1c(=O)cc(SCC(=O)N2CCN(c3ccccc3F)CC2)c2ccc(Cl)cc21`, the survival was inactive: 60%.

For the compound `Cc1ccccc1OCCSc1nc2ccc(NC(=O)c3cccs3)cc2s1`, the survival was inactive: 74%.

In the case of `COCCCNC(=O)CSc1nc2cc3c(cc2c(=O)n1CCCC(=O)NCc1ccc2c(c1)OCO2)OCO3`, the survival was inactive: 82%.

Take `COc1ccc(OC)c(NC(=O)Nc2c(C)n(C)n(-c3ccccc3)c2=O)c1`: the survival is inactive: 85%.

Consider `Cc1ccc(Cn2ccnc2SCC(=O)Nc2nnc(C)s2)cc1`, for which the survival was inactive: 65%.

`Cc1ccc(-c2csc(=Nc3ccccc3)n2Cc2ccc3c(c2)OCO3)cc1`: the survival was inactive: 69%.

As for `COc1ccc(CNC(=O)c2cc3sccc3n2Cc2ccc(C)cc2)cc1`, the survival is inactive: 91%.
